{"source": "PubChem BioAssay AID588579", "about": "(National Center for Advancing Translational Sciences (NCATS), 2011)", "note": "Out of some 400,000 compounds screened, about 2,200 (0.55%) were called active. Inconclusive results (about 1%) are left out. Calls follow the shape of the dose curve; as a rule, active = well fitted inhibition curve with a large enough effect; inconclusive = small, poorly fitted or top-dose-only effect, or another doubt; inactive = no such curve, though single readings can be large or run the other way. The list shows a part of the results, in another mix than the full data. More than one record can exist for a structure, and the calls need not agree. % is scaled to controls: 0 for no effect and ±100 for the full control effect; potency is read from the fitted curve at half-maximal effect."}
{"target": "DNA polymerase kappa (Homo sapiens) (UniProt Q9UBT6)", "sequence (Q9UBT6 whole entry, looked up)": "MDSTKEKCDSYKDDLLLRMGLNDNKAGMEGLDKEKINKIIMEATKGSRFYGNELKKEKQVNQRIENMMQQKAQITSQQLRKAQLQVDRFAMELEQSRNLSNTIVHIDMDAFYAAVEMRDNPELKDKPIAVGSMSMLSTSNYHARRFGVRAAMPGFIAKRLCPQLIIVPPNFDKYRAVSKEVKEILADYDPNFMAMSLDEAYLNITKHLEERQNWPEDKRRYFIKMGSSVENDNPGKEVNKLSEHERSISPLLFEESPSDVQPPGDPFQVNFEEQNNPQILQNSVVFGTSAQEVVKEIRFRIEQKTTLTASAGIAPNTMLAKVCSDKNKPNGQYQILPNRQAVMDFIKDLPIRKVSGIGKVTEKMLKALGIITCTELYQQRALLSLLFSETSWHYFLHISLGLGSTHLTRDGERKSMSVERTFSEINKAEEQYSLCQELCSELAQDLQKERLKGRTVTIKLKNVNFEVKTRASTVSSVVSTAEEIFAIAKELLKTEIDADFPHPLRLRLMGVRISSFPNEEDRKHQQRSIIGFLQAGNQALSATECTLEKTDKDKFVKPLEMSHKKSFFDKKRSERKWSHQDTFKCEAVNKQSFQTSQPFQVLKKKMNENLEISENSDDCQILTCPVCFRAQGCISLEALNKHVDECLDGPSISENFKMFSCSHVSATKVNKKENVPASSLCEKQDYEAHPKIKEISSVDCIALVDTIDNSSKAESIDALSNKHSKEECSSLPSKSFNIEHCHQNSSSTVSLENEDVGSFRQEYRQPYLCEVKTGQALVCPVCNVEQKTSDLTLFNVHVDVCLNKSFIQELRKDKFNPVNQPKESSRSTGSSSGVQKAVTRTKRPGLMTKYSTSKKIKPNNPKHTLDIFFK", "assay": "qHTS for Inhibitors of Polymerase Kappa", "settings": "purified Pol kappa, fluorescent DNA synthesis assay, 10 min; series mostly up to 107 µM; activity, negative = inhibition: at the top concentration", "procedure,_shortened": "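10 nM Pol kappa was preincubated with compounds for 15 min at room temperature. Reaction started with 50 nM (final) substrate. Fluorescence read kinetically at 0 and 10 min.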"}
{"compound": "C=N[C@H](C(=O)N[C@@H]1C(=O)N2[C@@H]1SC(C)(C)[C@@H]2C(=O)O)c1ccccc1", "activity, negative = inhibition": "inactive: -3.42% [at 12 µM]"}
{"compound": "OC[C@@H]1O[C@H](O)[C@H](O)[C@@H](O)[C@@H]1O", "activity, negative = inhibition": "inactive: -3.03% [at 60.1 µM]"}
{"compound": "COc1ccc(NC(=O)c2ccc(-c3ccc(-c4noc(C)n4)cc3C)cc2)cc1OCCN(C)C", "Potency": "inactive"}
{"compound": "O=c1c(O)c(-c2ccc(O)c(O)c2)oc2c(OC3OC(CO)C(O)C(O)C3O)c(O)cc(O)c12", "note": "(configuration not stated)", "Potency": "active: 3.16 µM"}
{"compound": "O=C1OCCN1C(=O)[C@H]1[C@H](c2ccccc2)C(c2ccc(F)cc2)=NN1c1ccccc1", "activity, negative = inhibition": "inactive: 11.5%"}
{"compound": "O=C(O)c1cccc(-n2cccc2/C=C2/NC(=O)N(c3ccc(Cl)cc3)C2=O)c1", "Potency": "active: 1.58 µM"}
{"compound": "Cc1cc(C)c2nc(-c3ccco3)cc(C(=O)O)c2c1", "Potency": "active: 22.4 µM"}
{"compound": "COc1cc2c(c(OC)c1OC)C(c1ccccc1C)CC(=O)O2", "note": "(configuration not stated)", "activity, negative = inhibition": "inactive: 2.85%"}
{"compound": "Cc1nc2scc(C)n2c(=O)c1S(=O)(=O)Nc1ccc(N2CCOCC2)c(Cl)c1", "activity, negative = inhibition": "inactive: 9.88%"}
{"compound": "C=C[C@@]1(C)CC(=O)[C@]2(O)[C@@]3(C)[C@H](O)CCC(C)(C)[C@@H]3[C@H](O)[C@H](OC(C)=O)[C@@]2(C)O1", "activity, negative = inhibition": "inactive: 14.6% [at 60.1 µM]"}
{"compound": "CO[C@@]12[C@H](COC(N)=O)C3=C(C(=O)C(C)=C(N)C3=O)N1C[C@@H]1N[C@@H]12", "activity, negative = inhibition": "inactive: -11.8%"}
{"compound": "C[C@]12CC[C@@H]3c4ccc(O)cc4CC[C@H]3[C@@H]1CC[C@H]2O", "activity, negative = inhibition": "inactive: -15.6% [at 60.1 µM]"}
{"compound": "CCC(C(=O)OCCN(CC)CC)c1ccccc1", "note": "(configuration not stated)", "activity, negative = inhibition": "inactive: 0.95% [at 19.4 µM]"}
{"compound": "COc1ccc(Cn2c(CCC(=O)Nc3ccccc3OC)nc3cccnc32)cc1", "activity, negative = inhibition": "inactive: -1.07%"}
{"compound": "Cc1ccc(-c2nc3c(c(SCC(=O)Nc4cccc(C(=O)O)c4)n2)Cc2cccc(C)c2O3)cc1", "Potency": "inactive"}
{"compound": "CC(=O)OC1CC2CCC1(C)C2(C)C", "note": "(configuration not stated)", "Potency": "inactive"}
{"compound": "Cc1ccc(NC(=O)CN(C)C(=O)c2cccc(-n3cccc3)c2)cc1", "Potency": "active: 17.8 µM"}
{"compound": "CC(/C=C/C1(O)C(C)CC(O)CC1(C)C)OC1OC(CO)C(O)C(O)C1O", "note": "(configuration not stated)", "Potency": "active: 56.2 µM"}
{"compound": "O=C(c1ccc(C(F)(F)F)cc1)N1CCC(=O)N(C(COCc2ccc(C(F)(F)F)cc2)Cc2ccccc2)CC1", "note": "(configuration not stated)", "activity, negative = inhibition": "inactive: -0.0329%"}
{"compound": "CC[C@H](C)[C@H](NC(=O)[C@H](Cc1ccc(O)cc1)NC(=O)[C@H](CCCNC(=N)N)NC(=O)[C@H](CCCNC(=N)N)NC(=O)[C@H](CC(C)C)NC(=O)[C@H](CCC(N)=O)NC(=O)[C@@H](NC(=O)[C@H](CCC(=O)O)NC(=O)[C@H](Cc1ccc(O)cc1)NC(=O)[C@H](CCC(N)=O)NC(=O)[C@H](C)NC(=O)[C@H](CCCNC(=N)N)NC(=O)[C@H](CCC(N)=O)NC(=O)[C@H](CCC(=O)O)NC(=O)[C@H](Cc1cnc[nH]1)NC(=O)[C@@H](NC(=O)[C@H](C)NC(=O)[C@H](Cc1ccc(O)cc1)NC(=O)[C@H](CC(=O)O)NC(=O)CNC(=O)[C@@H]1CCCN1C(=O)[C@H](Cc1ccc(O)cc1)NC(=O)[C@H](CCSC)NC(=O)[C@@H]1CCCN1C(=O)[C@H](CCC(=O)O)NC(=O)[C@H](CC(C)C)NC(=O)[C@@H]1CCCN1C(=O)[C@H](C)N)[C@@H](C)O)[C@@H](C)O)C(=O)N[C@@H](CC(N)=O)C(=O)N[C@H](C(=O)N[C@@H](CC(C)C)C(=O)N[C@H](C(=O)N[C@@H](CCCNC(=N)N)C(=O)N1CCC[C@H]1C(=O)N[C@@H](CCCNC(=N)N)C(=O)N[C@@H](Cc1ccc(O)cc1)C(N)=O)[C@@H](C)O)[C@@H](C)O", "activity, negative = inhibition": "inactive: 19.1% [at 60.1 µM]"}
{"compound": "CCN1/C(=C/C=C/c2sc3ccccc3[n+]2CC)Sc2ccccc21", "Potency": "active: 11.2 µM"}
{"compound": "O=C(O)C1CCCN1", "note": "(configuration not stated)", "activity, negative = inhibition": "inactive: 11.4% [at 60.1 µM]"}
{"compound": "CC(C)(C)[C@]1(O)CCN2C[C@H]3c4ccccc4CCc4cccc(c43)[C@@H]2C1", "Potency": "inactive"}
{"compound": "COc1ccc2cc(C(C)C(=O)O)ccc2c1", "note": "(configuration not stated)", "Potency": "inactive"}
{"compound": "CCc1nn(CC(=O)NCc2ccccc2Cl)c(=O)c2cccn12", "activity, negative = inhibition": "inactive: -3.43%"}
{"compound": "CN(C)C1C(=O)C(C(N)=O)=C(O)[C@@]2(O)C(=O)C3=C(O)c4c(O)ccc(Cl)c4C(O)[C@H]3C[C@@H]12", "note": "(some centres not stated)", "activity, negative = inhibition": "inactive: -13.9% [at 60.1 µM]"}
{"compound": "O=C(O)C1=CCCNC1", "Potency": "inactive"}
{"compound": "C=C[C@]1(C)CC(=O)[C@@]2(O)[C@@]3(C)C(O)CCC(C)(C)C3C(O)C(OC(C)=O)[C@@]2(C)O1", "note": "(some centres not stated)", "activity, negative = inhibition": "inactive: -3.5% [at 60.1 µM]"}
{"compound": "CC(C)(C)C(=O)OCOP(=O)(OCOC(=O)C(C)(C)C)C(C)(Oc1ccc(O)cc1)P(=O)(OCOC(=O)C(C)(C)C)OCOC(=O)C(C)(C)C", "Potency": "active: 35.5 µM"}
{"compound": "C[C@@H]1O[C@@H](OC[C@@H]2O[C@H](Oc3c(-c4ccc(O)cc4)oc4cc(O)cc(O)c4c3=O)[C@@H](O)[C@H](O)[C@H]2O)[C@H](O)[C@H](O)[C@H]1O", "activity, negative = inhibition": "inactive: -3.06%"}
{"compound": "C#Cc1ccc([C@@H]2C=C(C(=O)OCC=C)O[C@H](OCc3ccc(CO)cc3)C2)cc1", "activity, negative = inhibition": "inactive: -21.7%"}
{"compound": "C[C@H]1c2cccc(O)c2C(O)=C2C(=O)C3(O)C(O)=C(C(N)=O)C(=O)[C@@H](N(C)C)[C@@H]3[C@@H](O)[C@@H]21", "note": "(some centres not stated)", "activity, negative = inhibition": "inactive: 0.57%"}
{"compound": "COc1ccc(/C=C/c2ccc3ccccc3[n+]2C)cc1OC", "activity, negative = inhibition": "inactive: -30.1%"}
{"compound": "COc1cc(OC)c2c(-c3ccccc3)cc(=O)oc2c1C(CC(=O)N1CCCC1)c1ccc2c(c1)OCO2", "note": "(configuration not stated)", "activity, negative = inhibition": "inactive: -26.1%"}
{"compound": "COc1cc2cc(CN(Cc3cccnc3)C(=O)Nc3ccccc3F)c(=O)[nH]c2cc1OC", "activity, negative = inhibition": "inactive: 32.3%"}
{"compound": "C[C@@H]1C(c2ccc(F)cc2)=NN(c2ccccc2)[C@H]1C(=O)N1CCOC1=O", "activity, negative = inhibition": "inactive: -17.1%"}
{"compound": "H-VLGKLSQELHKLQTYPRTNTGSGTP-NH2", "activity, negative = inhibition": "inactive: 22% [at 60.1 µM]"}
{"compound": "O=C(c1ccc(=O)oc1)N1CCOCC1", "Potency": "active: 50.1 µM"}
{"compound": "COc1cccc(CNC(=O)CCNS(=O)(=O)c2ccc3c(c2)oc(=O)n3C)c1", "activity, negative = inhibition": "inactive: -10.7%"}
{"compound": "O=[N+]([O-])c1cccc2cn[nH]c12", "Potency": "inactive"}
{"compound": "COc1cc(/C=C(\\C#N)C(=O)Nc2nnc(C(F)(F)F)s2)ccc1OCc1ccc(C(F)(F)F)cc1C(F)(F)F", "Potency": "active: 6.7 µM"}
{"compound": "CC(C)C[C@H](NC(=O)[C@@H](Cc1c[nH]c2ccccc12)NC(=O)[C@@H](Cc1ccc(O)cc1)NC(=O)[C@@H](CO)NC(=O)[C@@H](Cc1c[nH]c2ccccc12)NC(=O)C(Cc1cnc[nH]1)NC(=O)C1CCC(=O)N1)C(=O)N[C@@H](CCCN=C(N)N)C(=O)N1CCC[C@@H]1C(=O)NCC(N)=O", "note": "(some centres not stated)", "activity, negative = inhibition": "inactive: -5.89% [at 19.4 µM]"}
{"compound": "CCCc1cc(C(=O)N2CCN(C(c3ccccc3)c3ccccc3)CC2)no1", "Potency": "active: 89.1 µM"}
{"compound": "CC1(C)[C@@H](O)CC[C@]2(C)C3C(=O)C=C4C5C[C@@](C)(C(=O)O)CC[C@]5(C)CC[C@@]4(C)[C@]3(C)CC[C@@H]12", "note": "(some centres not stated)", "activity, negative = inhibition": "inactive: -7.56% [at 19.4 µM]"}
{"compound": "Cc1cc(-c2ccc(N=Nc3c(S(=O)(=O)O)cc4cc(S(=O)(=O)O)cc(N)c4c3O)c(C)c2)ccc1N=Nc1c(S(=O)(=O)O)cc2cc(S(=O)(=O)O)cc(N)c2c1O", "Potency": "active: 0.891 µM"}
{"compound": "Cc1nc2ccc3nc(NC(=O)c4ccc5c(c4)OCCO5)sc3c2s1", "activity, negative = inhibition": "inactive: -29.1%"}
{"compound": "Oc1ccc(-c2csc(-c3cccnc3)n2)cc1O", "Potency": "active: 31.6 µM"}
{"compound": "COc1ccc(-c2nn(CCC(=O)O)cc2/C=C2\\SC(N)=NC2=O)cc1", "Potency": "active: 79.4 µM"}
{"compound": "Nc1ncnc2c1c(-c1ccc(Oc3ccccc3)cc1)cn2C1CCCC1", "Potency": "inactive"}
{"compound": "C=CC1(C)CC(=O)C2(O)C(C)(O1)C(OC(C)=O)C(O)C1C(C)(C)CCC(O)C12C", "note": "(configuration not stated)", "Potency": "inactive"}
{"compound": "O=C(N/N=C/c1cc(Br)c(O)c(Br)c1)c1cc2c(ccc3ccccc32)o1", "Potency": "active: 20 µM"}
{"compound": "CN(C)c1ccc(/C=C2\\SC(=S)N(Nc3ncc(C(F)(F)F)cc3Cl)C2=O)cc1", "Potency": "active: 17.8 µM"}
{"compound": "O=[N+]([O-])c1ccc(-[n+]2ccc3ccccc3c2)c([N+](=O)[O-])c1", "Potency": "active: 79.4 µM"}
{"compound": "Oc1ccc(-c2cn3c(n2)SCC3)cc1O", "Potency": "active: 7.08 µM"}
{"compound": "Oc1c(/C=C/C=C/C=Nc2ccccc2)sc(=S)n1Cc1ccccc1", "Potency": "active: 79.4 µM"}
{"compound": "O=C1/C(=C\\c2ccc(O)c(O)c2)Oc2c1ccc(O[C@@H]1O[C@H](CO)[C@@H](O)[C@H](O)[C@H]1O)c2O", "Potency": "active: 31.6 µM"}
{"compound": "CCCCNC(=O)c1cnc2c(-c3ccc(OCC)c(OCC)c3)c(C)nn2c1-c1ccccc1", "activity, negative = inhibition": "inactive: 28%"}
{"compound": "O=C1c2ccccc2C(=O)c2c1ccc(O)c2O", "activity, negative = inhibition": "inactive: -23.3%"}
{"compound": "Cc1c2cnn(CC(=O)Nc3c(F)c(F)cc(F)c3F)c(=O)c2c(C)n1Cc1ccccc1F", "Potency": "active: 44.7 µM"}
{"compound": "O=C(OCC1OC(OC(=O)c2cc(O)c(O)c(OC(=O)c3cc(O)c(O)c(O)c3)c2)[C@@H](OC(=O)c2cc(O)c(O)c(OC(=O)c3cc(O)c(O)c(O)c3)c2)C(OC(=O)c2cc(O)c(O)c(OC(=O)c3cc(O)c(O)c(O)c3)c2)C1OC(=O)c1cc(O)c(O)c(OC(=O)c2cc(O)c(O)c(O)c2)c1)c1cc(O)c(O)c(OC(=O)c2cc(O)c(O)c(O)c2)c1", "note": "(some centres not stated)", "Potency": "active: 0.006 µM"}
{"compound": "COC(=O)C1=CO[C@@H](O[C@@H]2O[C@H](CO)[C@@H](O)[C@H](O)[C@H]2O)C2C1C=C[C@@]2(O)CO", "note": "(some centres not stated)", "activity, negative = inhibition": "inactive: -15.7%"}
{"compound": "O=C1NC(=S)S/C1=C\\c1ccc(SCc2ccco2)o1", "Potency": "active: 1.78 µM"}
